The list shows a part of the results.
T1: UNK ZnF1-3 (human, UniProt Q9C0B0 31-174)
T1 sequence: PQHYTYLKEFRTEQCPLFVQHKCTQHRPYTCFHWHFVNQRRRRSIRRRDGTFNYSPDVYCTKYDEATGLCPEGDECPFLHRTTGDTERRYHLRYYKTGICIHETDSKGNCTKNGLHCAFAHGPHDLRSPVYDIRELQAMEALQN

B1: 180263169_180263726_1282_CDS_ENSMUSG00000039630_ENSMUST00000037748|mouse|control|control (ssRNA)
RNA: GGGAGUUCUACAGUCCGACGAUCAUAAUCUUCUGUCUCACAGUUGCAUGUUUUUAUUCCUUUCAGAGAAUACCCGUAAGAAAAUUCUUCUUCACCAAGCAACAUUCCACUUGUGGUUAGUGACCAGCCAAUCCGAACUUCAUGCAACAGAGGAUUGAGCAUCA
B2: chr4:142697793:142697794:-_ENSMUSG00000057637_ENSMUST00000105778|mus_mus|FALSE|FALSE (ssRNA)
RNA: GGGAGUUCUACAGUCCGACGAUCUAGGACAGACUGUGUCAGUGGGGUUGGCGACAGCCAUGAGUCCAUGCUUUCGAGGACUAACUGCAGGGUGCGUAGAAGGAGAAAAUUCCAGUUGAAGAAAUAAAAGAGGGGCACGCCAGACAACAGAGGAUUGAGCAUCA
B3: chr5:40767622:40767623:-_ENSG00000132356_ENST00000397128|hu_mus|hu_hu_hu_mus_False|38_58 (ssRNA)
RNA: GGGAGUUCUACAGUCCGACGAUCAUCUUUUAUUGCGGCCCUCUUCAUGGGAUCCACCUGCAGCAUAUGUUUCAAAAGGCUAAUCACUGAAGGGUUUAAAUAUUGAGGGGUAUAAAAGAUCCCAUCACAUAUCUUCUUAAAAAGCAACAGAGGAUUGAGCAUCA
B4: chr4:47850210:47850211:-_ENSG00000170448_ENST00000381538|hu_hu|motif|central (ssRNA)
RNA: GGGAGUUCUACAGUCCGACGAUCUACAUUAAAAGAUCAAAACUUUUUUUAAUUGACAUCAUGGGUGAUGUACCAGGCAAACACGGCAACCACAACUCCACACACUGAAAUGAGAUAAUAUUUAUGUUUUUGCCAUAGUGAUAGCAACAGAGGAUUGAGCAUCA
B5: chr2:151326667:151326668:-_ENSG00000115963_ENST00000263895|hu_hu|motif|central (ssRNA)
RNA: GGGAGUUCUACAGUCCGACGAUCUUUAUUUGUCUUAUUUACACAUGCCAAGGUGGCAACGUGAAAAAUGUCUCUGACGCGGUUUUCCGACUGUAAAGCUGAGCAUUCGAUAUAAGUAGCUGCUCCAAUCUGUUUGGCCAUAUUCAACAGAGGAUUGAGCAUCA
B6: chr3:57646030:57646031:-_ENSMUSG00000027805_ENSMUST00000066882|mus_hu|FALSE|FALSE (ssRNA)
RNA: GGGAGUUCUACAGUCCGACGAUCUAAAUCUGUACAUUAUCCACAAGGCCCAAACAAUAGAAGCAAAUACUAGAAUGUCCCUAAAGUAGUGCCAUUCGAAAGAAACCCUUAAUAGGUCAGUUAAAAUCCAUCUCACAAUAGCAACAACAGAGGAUUGAGCAUCA
B7: chr17:85393198:85393199:+_ENSMUSG00000061130_ENSMUST00000080217|mus_mus|FALSE|FALSE (ssRNA)
RNA: GGGAGUUCUACAGUCCGACGAUCAUGUGUUGAACAGUAAUUUGCCACUCGGGAUCCAGCAUGACCGUCAUAAACUGCAAAAAACGACCAGUUGUCCAAGCCGUGAGGAAUACCCACAACAGCUGUGUGUGCAUCUUCCAUUUCCAACAGAGGAUUGAGCAUCA
B8: chr11:60965468:60965469:-_ENSMUSG00000042506_ENSMUST00000041683|mus_mus|FALSE|FALSE (ssRNA)
RNA: GGGAGUUCUACAGUCCGACGAUCCUAACCACAGUACAAUCAUUGGAUUUUUUUUCCCUCACGAUUUUUUAUUUCAAAGCUAUAAUAAAUGAAACAAACCACUUGUCAAAAAGAACAAUGAUUUUACACAAGGAAAAGCAUACACAACAGAGGAUUGAGCAUCA
B9: chr10:118639881:118639882:-_ENSMUSG00000020114_ENSMUST00000020315|mus_hu|motif|central (ssRNA)
RNA: GGGAGUUCUACAGUCCGACGAUCAACACUAGUGGUUUUACAACCUCUGGAUUAUGGAAAUACACAUUUCUGAAAUAAAUGCGGCAAAAACAACAAUGGAAGAAAGCCAAACAAACAGUCUCCAUGAAGGAAAAAAAAGUGGAACAACAGAGGAUUGAGCAUCA
B10: chr22:38884116:38884117:-_ENSG00000100201_ENST00000396821|hu_mus|FALSE|FALSE (ssRNA)
RNA: GGGAGUUCUACAGUCCGACGAUCAUAAUCCUCUGAGCUGUUUGGAUAAUCGUAGUUGAUGACAAACUUGACAUCUUCCACAUCUAGCCCACGGGAGGCUACAUCCGUGGCAAUGAGGAUAGGAGCCUUUCCAGAUCGGAACUCCAACAGAGGAUUGAGCAUCA
B11: chr9:106594412:106594413:-_ENSMUSG00000040661_ENSMUST00000046502|mus_hu|FALSE|FALSE (ssRNA)
RNA: GGGAGUUCUACAGUCCGACGAUCCUCACCCUGAUGUUCACACUAGGUGCCAUGAACCACCAAACUGACUUCCAUUUAAAGAAAGAUAAAUUCAUUUUUCAGUUUCCCUCUUAGUUCUUCCCUCCCUCCCCUCCCACCUUCACCCAACAGAGGAUUGAGCAUCA
B12: chr17:65346418:65346419:-_ENSG00000197170_ENST00000584008|hu_hu|FALSE|FALSE (ssRNA)
RNA: GGGAGUUCUACAGUCCGACGAUCUCGUAGAGUAUCAAUUAAUCGAAGUUUGAUAGGAAGGUCUGUGAUUUCCUCAACAUAAGUACAGCACUGUUGAACCAUUUUGGCAACAGCUUGUUUUAACUGACUCCGCCUUUUGGACAACAACAGAGGAUUGAGCAUCA
B13: chr1:186286705:186286706:-_ENSG00000047410_ENST00000367478|hu_mus|FALSE|FALSE (ssRNA)
RNA: GGGAGUUCUACAGUCCGACGAUCGAUGCUUGGACAGGCUCCUCUUCCUGCUGGCUAUCAAUUUCUAGGCCUGCCUCUGAACUAAUACCUUCAGACUCCGCCUCUACAAAUACUUCAUCUCCGUCGUCACCUGCUGCUGUUUCGCAACAGAGGAUUGAGCAUCA
B14: chr4:76721835:76721836:+_ENSG00000138768_ENST00000264904|hu_mus|hu_hu_hu_mus_True|88_88 (ssRNA)
RNA: GGGAGUUCUACAGUCCGACGAUCGUUUGGCUGGGGUUUCUGAGACGUCUGGAAUACUAACUCAUGUUUGCUAAUAAAUCCUAGUUUCUCUAUGAAAUUCUCUUUGCCAAUCCUCUUCUCUAUUAGUUGCUUUAGUUUCUCUUUCAACAGAGGAUUGAGCAUCA
B15: chr1:63494365:63494366:+_ENSMUSG00000025964_ENSMUST00000114107|mus_mus|motif|central (ssRNA)
RNA: GGGAGUUCUACAGUCCGACGAUCAGGCAGUGUGAUUUCUUUUUGCACUGCACUGCUGUAGCUGGUAUUUCUGCUGCUGCGGUUUUGUUGCAAUGUGUUGUCUUCAUCUGCCAGGACUCCCAGGGUUUUUUCUGCAGUUUCAUUCAACAGAGGAUUGAGCAUCA
B16: chr3:52290438:52290439:-_ENSG00000164091_ENST00000296490|hu_mus|FALSE|FALSE (ssRNA)
RNA: GGGAGUUCUACAGUCCGACGAUCACACGUAUGUAAUGUGCAUGUCUGCACAAAUGUAUUAAAGUGGACACACACAGUGUUCAAAUACAAACAGAUCAAGGGUCAUAUAUAAAAAGGCUAAAUAUAACAUAUAACACAGGCCUACAACAGAGGAUUGAGCAUCA
B17: chr16:94690093:94690094:+_ENSMUSG00000040785_ENSMUST00000117648|mus_hu|mus_mus_mus_hu_True|78_98 (ssRNA)
RNA: GGGAGUUCUACAGUCCGACGAUCGGGCUGGGAUGACAGCAGACAGCCCUCGAUUCCGGUAAAAAAAAGUCUUAGUCGAUACUAAUUAAAAAGUGUUAAUGAUUUUUGAAAAUCAGAUUACAUCUAUAAAAGAUGAAAAGCAAACAACAGAGGAUUGAGCAUCA
B18: chr7:157177620:157177621:+_ENSG00000105993_ENST00000429029|hu_hu|FALSE|FALSE (ssRNA)
RNA: GGGAGUUCUACAGUCCGACGAUCGCCCAUGCCACUACCACCAAAUGACGUGGAAGAGAAUGAAGUGAGGCCCCCGUGACCUAGUGACCCAAAUGAAGUAAAUCCUGUAUCAAAAGAAGAAAAUCCACUUCCAAAAGACGGAAACAACAGAGGAUUGAGCAUCA
B19: 89614512_89614632_732_3pUTR_ENSG00000111880_ENST00000369485|human|control|control (ssRNA)
RNA: GGGAGUUCUACAGUCCGACGAUCUCAUCUUCGUCUUCAUCAUCCUCAAAACACCAAUCUGGCAAUAGAGGUGGGGGUGGUGCUUCCUCUAUGUCACCAUACCGACGAAAAAGUUCCUUCAAAUAAUCACCCUUGUAGAUUCCUCAACAGAGGAUUGAGCAUCA
B20: chr14:89307221:89307222:+_ENSG00000165533_ENST00000346301|hu_mus|hu_hu_hu_mus_False|38_68 (ssRNA)
RNA: GGGAGUUCUACAGUCCGACGAUCUCCUGUUUGGUUAGUGCCAGGGAGCUUCAAAGAUGUGCCAGGGCGUGGAACUUGAGCAAUAGCAUUUUCAUCCAGCAUCAUUUCAGCAAUUCCUUCCUGGUCCACAUCAAUUUCAUCUAUCAACAGAGGAUUGAGCAUCA
B21: chr1:163112212:163112213:-_ENSG00000143248_ENST00000313961|hu_hu|hu_hu_hu_mus_False|1_88 (ssRNA)
RNA: GGGAGUUCUACAGUCCGACGAUCUUUUAUUAUCAGUAAGAGUGAGUCACAUAGUACGCAAAGUAUUGGAUACAAUAAUCAGGAAACAAACACUAUUGGUCCAGAAUUUAAAACUUUAUGAGCGAAGUGCUGGCACAGGAUUUACAACAGAGGAUUGAGCAUCA
B22: chr5:137354059:137354060:-_ENSG00000031003_ENST00000033079|hu_mus|motif|central (ssRNA)
RNA: GGGAGUUCUACAGUCCGACGAUCGUGAAUAUGCAAGCUGCCAGGUAUGACGGGCUCAGGGAGCUCCUGCAGGAAAAACCGGAGGAGACUAAUGGCUGAGGGGACGUCCGCUUCCUUAACCAAGUCCACCUCUUCUCCACUGUCCAACAGAGGAUUGAGCAUCA

The binders below were run against T1, UNK ZnF1-3 (assay: nsRBNS (natural sequence RNA bind-n-seq); RBNS binding buffer (assumed for nsRBNS): 25 mM Tris pH 7.5, 150 mM KCl, 3 mM MgCl2, 0.01% Triton X-100, 500 ug/ml BSA, 20 U/ml SUPERase-In, 4 C; UNK is unkempt and MSI1 is Musashi-1; names of the RNAs are library labels; protein concentration not given here; high values mean tight binding).
Binder B1 has a binding signal of 0.996 enrichment R.
Binder B2 has a binding signal of 1.75 enrichment R.
Binder B3 has a binding signal of 1.36 enrichment R.
With B4 the binding signal was 1.72 enrichment R.
With B5 the binding signal was 0.723 enrichment R.
B6 showed a binding signal of 1.15 enrichment R.
Work on B7 yielded a binding signal of 1.24 enrichment R.
B8 was tested, and the binding signal was 0.726 enrichment R.
In the case of B9, the binding signal is reported as 1.81 enrichment R.
In the case of B10, the binding signal is reported as 0.664 enrichment R.
In the case of B11, the binding signal is reported as 1.1 enrichment R.
B12 gave a binding signal of 0.996 enrichment R.
B13 showed a binding signal of 0.914 enrichment R.
In the case of B14, the binding signal is reported as 0.371 enrichment R.
B15 was tested, and the binding signal was 0.155 enrichment R.
B16 was tested, and the binding signal was 0.746 enrichment R.
B17 gave a binding signal of 1.91 enrichment R.
B18 gave a binding signal of 1.56 enrichment R.
B19 gave a binding signal of 1.01 enrichment R.
B20 showed a binding signal of 0.962 enrichment R.
Work on B21 yielded a binding signal of 1.44 enrichment R.
With B22 the binding signal was 0.8 enrichment R.

— paper PMC12136788
